Paper PMC13040083, “Single-molecule dynamics reveal ATP binding alone powers substrate translocation by an ABC transporter” (Nature Communications, 2026)

Biological target: OppA (AF555/AF647-labeled LlOppA A209C/S441C) (Lactococcus lactis subsp. lactis, UniProt Q07741, A231C/S463C)

`CC(C)C[C@H](NC(=O)[C@H](CCC(=O)O)NC(=O)[C@@H](NC(=O)[C@H](CO)NC(=O)[C@H](CCCCN)NC(=O)[C@H](CCC(N)=O)NC(=O)[C@H](Cc1ccc(O)cc1)NC(=O)[C@H](CCCNC(=N)N)NC(=O)[C@@H](N)CCCNC(=N)N)[C@@H](C)O)C(=O)O` showed a Kd of 200 to 900 nM.
